In PubChem BioAssay AID1745853 (National Center for Advancing Translational Sciences (NCATS), 2022):
Some of the results follow. Shown are side measurements of this screen, not its main read-out; they come without a call.

Columns and labels:
Assay in all cases: Primary Screen for Target Class Profiling of Small Molecule Inhibitors of Methyltransferases
[1] = molecular target: Glycine N-methyltransferase (Homo sapiens) (UniProt Q14749); conditions: purified enzyme, MTase-Glo SAH luminescence; measured here: GNMT inhibition; at 40 µM; stronger effect = lower value
Method in brief: (§1)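 Each enzyme was assayed with SAM and its substrate. SAH formation detected by MTase-Glo luminescence; single-point 40 uM screen[…].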

[2] = molecular target: Guanidinoacetate N-methyltransferase (Homo sapiens) (UniProt Q14353); conditions: purified enzyme, MTase-Glo SAH luminescence; measured here: GAMT inhibition; at 40 µM; stronger effect = lower value
Method in brief: as §1

[3] = molecular target: Histamine N-methyltransferase (Homo sapiens) (UniProt P50135); conditions: purified enzyme, MTase-Glo SAH luminescence; measured here: HNMT inhibition; at 40 µM; stronger effect = lower value
Method in brief: as §1

[4] = molecular target: Nicotinamide N-methyltransferase (Homo sapiens) (UniProt P40261); conditions: purified enzyme, MTase-Glo SAH luminescence; measured here: NNMT inhibition; at 40 µM; stronger effect = lower value
Method in brief: as §1

[5] = molecular target: Phenylethanolamine N-methyltransferase (Homo sapiens) (UniProt P11086); conditions: purified enzyme, MTase-Glo SAH luminescence; measured here: PNMT inhibition; at 40 µM; stronger effect = lower value
Method in brief: as §1
On the % scale 0 is the no-effect control and ±100 the full control effect.

SMILES	activity change, negative = inhibition [1] [%]	activity change, negative = inhibition [2] [%]	activity change, negative = inhibition [3] [%]	activity change, negative = inhibition [4] [%]	activity change, negative = inhibition [5] [%]
N[C@@H](CC(=O)N1CCn2c(nnc2C(F)(F)F)C1)Cc1[nH]nc2c(F)c(F)ccc12	5.04	2.9	4.99	-12.7	-1.77
O=C1NC(=NCc2cccs2)S/C1=C/c1ccc2ncccc2c1	–	2.28	–	-15.5	1.44
Cc1ccc(C)c(Cn2nc3n(C)c(=O)c4ccc(C(=O)NCC(C)C)cc4n3c2=O)c1	1.65	2.6	5.44	-1.21	-3.12
COc1ccc2cc3n(c2c1)CC(C)(C(=O)NC1CCCCC1)N(CCN1CCOCC1)C3=O (stereo unspecified)	0.95	4.2	-2.01	-0.511	-5.08
CN1C(=O)c2cc(C(=O)NC3CC3)nn2CC1(C)C(=O)NCc1ccccc1 (stereo unspecified)	2.1	-0.784	-0.349	-0.775	-2.26
CC(C)Oc1ccc(CN2C(=O)c3cc4sccc4n3CC2(C)C(=O)NC2CCCCC2C)cc1 (stereo unspecified)	-0.668	4.1	-2.93	-2.29	-5.43
Fc1ccccc1C1Nc2ccc(Br)cc2C2C=CCC21 (stereo unspecified)	-9.87	-3.34	-10.2	-18.5	-11.1
CCCS(=O)(=O)N1CCC(c2noc(-c3cccnc3)n2)C1 (stereo unspecified)	1.59	1.01	0.245	-3.59	13.1
COCCNC(=O)CCc1nnc2n(Cc3ccccc3)c(=O)c3ccccc3n12	-2.68	0	8.86	12.9	3.52
CS(=O)(=O)c1ccc(CN2C[C@H](O)C[C@H]2c2nc(C3CC3)no2)cc1	-3.57	-7.43	0.525	-11.5	-8.21
Cc1ccc(Cn2c(=O)c3ccccc3n3c(=O)n(CC(=O)Nc4ccc(F)cc4)nc23)cc1	6.56	2.1	9.86	7.74	6.03
COc1ccc(NC(=O)c2ncn3c2C(=O)N(C2CC2)C(C)(C(=O)NCc2ccc(F)cc2)C3)cc1Cl (stereo unspecified)	-0.172	0.826	12.7	2.8	5.42
CCNS(=O)(=O)c1ccc2[nH]c(=O)[nH]c2c1	4.68	0	2.19	-0.676	-2.9
O=C(NCc1nnc2n1C(C(=O)NCc1ccc(F)cc1)CC2)Nc1cccnc1 (stereo unspecified)	-2.04	-7.78	0.735	-7.94	-5.27
C[C@]12CCC(=O)C=C1CC[C@@H]1[C@@H]2[C@@H](O)C[C@@]2(C)[C@H]1CC[C@]2(O)C(=O)CO	2.37	9.79	4.82	-3.92	4.43
Cc1nc(C)n(CCNC(=O)[C@H]2CNC[C@@H](C(=O)N3CCOCC3)C2)n1	-0.109	2.47	1.67	-2.61	1.89
CNC(=O)[C@@H]1CN(C(=O)c2ccncc2)C[C@H]1CO	-1.36	0.368	1.15	1.55	1.55
C[C@H]1[C@@H]2[C@@H](O)C([C@H](C)C(=O)N3CCC(Cc4ccccc4)CC3)CC[C@@]2(C)CC[C@@H]1NC(=O)c1cnccn1 (stereo partly specified)	-4.05	-2.2	-1.76	-5.26	-8.82
COc1ccc(CNC(=O)C2(C)Cn3cnc(C(=O)NC4CCCCC4)c3C(=O)N2C2CC2)cc1 (stereo unspecified)	-0.03	0	12.5	-1.1	3.21
C/C(=C\CC/C(C)=C/CC[C@]1(C)CCc2cc(O)cc(C)c2O1)CC/C=C(\C)C(=O)O	-12.2	-28.7	-0.951	-51.9	-12.2
C=C1C(=O)O[C@H]2[C@H]1[C@@H](OC(=O)/C(C)=C\C)C[C@]1(C)O[C@@H]1[C@H]1O[C@H]1C(=C)[C@H]2O	-3.33	0.477	9.14	-8.51	-0.239
CC1CCCN(c2ncnc3c2CN(c2ccc(Cl)cc2)C(=O)CN3C)C1 (stereo unspecified)	-8.29	-7.25	-3.17	-31.1	-0.799
CCCn1c(=O)c2ccc(Cl)cc2n2c(=O)n(CC(=O)Nc3ccc(OC)c(OC)c3)nc12	-1.01	5.71	0.19	2.82	1.03
CCOCCCNC(=O)C1c2c(n(C)c3ccccc23)SCC(=O)N1Cc1ccccc1Cl (stereo unspecified)	7.3	1.86	3.38	1.96	7.7
CS(=O)(=O)c1ccc(S(=O)(=O)N2CCC3(CCCNC3)C2)cc1 (stereo unspecified)	-4.78	-4.3	0.072	-4.41	-2.3
CC/C(=C(/CC)c1ccc(O)c(CN(CC)CC)c1)c1ccc(O)c(CN(CC)CC)c1	–	8.07	–	-1.53	6.36
CN1C(=O)c2cc(C(=O)NCCCN3CCc4ccccc4C3)nn2CC1(C)C(=O)NCc1ccc(F)cc1 (stereo unspecified)	-11.3	0	-16	-5.14	-8.36
O=C1NCc2c1c1c3ccccc3[nH]c1c1[nH]c3ccccc3c21	-29.7	-7.35	-12.9	-20.6	-20.6
CCn1cc(S(=O)(=O)N2CCC(Cc3nncn3C)C2)cn1 (stereo unspecified)	0.08	1.2	2.53	1.28	11.9
COc1ccccc1CNC(=O)C(C)n1ccc2cc(S(=O)(=O)N3CCCCC3)ccc21 (stereo unspecified)	2.12	0.755	0.723	-6.03	1.27
